Laboratory results published in the antibiotic and cytotoxicity screens of Wong et al. (2023).
The list shows a part of the results.

Tested on: HSkMC (human skeletal muscle cells)
Assay: cytotoxicity call (relative viability < 0.9)
Details: 10 µM

Compound | cytotoxicity call
CC(C)NC(=O)Nc1ccc2c(c1)C(=O)N([C@@H](C)CO)C[C@@H](C)[C@@H](CN(C)S(C)(=O)=O)OCCCC[C@@H](C)O2 | inactive
Cc1noc(C)c1N | inactive
C[C@@H]1CCCCO[C@H](CN(C)C(=O)Nc2ccc(C(F)(F)F)cc2)[C@@H](C)CN([C@@H](C)CO)C(=O)c2cc(NC(=O)CCC(F)(F)F)ccc2O1 | inactive
NC(CCC(=O)NC(CS)C(=O)NCC(=O)O)C(=O)O (stereo not given) | inactive
C[C@@H]1CN([C@H](C)CO)S(=O)(=O)c2ccc(-c3ccccc3F)cc2O[C@@H]1CN(C)S(C)(=O)=O | inactive
CCC[C@@H](O)C#Cc1cnc2c(c1)C(=O)N([C@H](C)CO)C[C@H](C)[C@H](CN(C)S(=O)(=O)c1ccc(C)cc1)O2 | inactive
COCCNC(=O)C[C@@H]1CC[C@H]2[C@@H](COC[C@@H](O)CN2C(=O)Nc2ccc3c(c2)OCO3)O1 | inactive
O=C(C[C@H]1C[C@H]2c3cc(NS(=O)(=O)c4ccc(F)cc4)ccc3O[C@H]2[C@H](CO)O1)N1CCOCC1 | inactive
Cl.Cl.OCCN1CCN(CCCN2c3ccccc3Sc3ccc(C(F)(F)F)cc32)CC1 | inactive
C[C@H]1CCCCO[C@H](CN(C)C(=O)NC2CCCCC2)[C@@H](C)CN([C@@H](C)CO)C(=O)c2cc(NC(=O)Nc3ccc4c(c3)OCO4)ccc2O1 | inactive
COc1cccc(-c2ccc3c(c2)O[C@@H](CN(C)C(=O)C2CC2)[C@H](C)CN([C@H](C)CO)S3(=O)=O)c1 | inactive
OCCC[C@@H](O)c1ccc(OCCO)cc1 | inactive
Cc1ccc(S[C@]2(C(=O)O)CC(=O)N(Cc3cc(C(F)(F)F)cc(C(F)(F)F)c3)[C@@H]2c2ccc(CO)cc2)cc1 | inactive
COc1ccc(NC(=O)N(C)C[C@H]2Oc3ccc(NC(=O)CCN4CCOCC4)cc3C(=O)N([C@@H](C)CO)C[C@@H]2C)cc1 | inactive
COc1ccc(S(=O)(=O)Nc2ccc3c(c2)CC(=O)N([C@H](C)CO)C[C@@H](C)[C@H](CN(C)C(=O)NC(C)C)O3)cc1 | inactive
CCCN(C)C[C@@H]1OCCCC[C@@H](C)Oc2ccc(NC(=O)C3CCCCC3)cc2C(=O)N([C@H](C)CO)C[C@@H]1C | inactive
C[C@H](CO)N1C[C@H](C)[C@@H](CN(C)C)Oc2cc(C#CCN(C)C)ccc2S1(=O)=O | inactive
C[C@@H]1CN([C@@H](C)CO)C(=O)c2cc(NC(=O)NC3CCCCC3)ccc2O[C@@H](C)CCCCO[C@H]1CN(C)Cc1ccc(C(F)(F)F)cc1 | inactive
C[C@H]1CN([C@@H](C)CO)S(=O)(=O)c2ccc(C#CC3(O)CCCC3)cc2O[C@@H]1CN(C)C(=O)Nc1ccc(F)cc1 | inactive
Cc1noc(C)c1S(=O)(=O)N(C)C[C@H]1Oc2ccc(NC(=O)CCC(F)(F)F)cc2CC(=O)N([C@H](C)CO)C[C@@H]1C | inactive

Compound | cytotoxicity call
COCCNC(=O)C[C@H]1CC[C@H](NS(=O)(=O)c2ccc(C)cc2)[C@H](CO)O1 | inactive
O=C(C[C@H]1C[C@H]2c3cc(NS(=O)(=O)c4ccc(F)cc4)ccc3O[C@H]2[C@H](CO)O1)NC1CCCC1 | inactive
COc1ccc(NC(=O)Nc2ccc3c(c2)C(=O)N([C@H](C)CO)C[C@H](C)[C@@H](CN(C)Cc2ccc(Cl)c(Cl)c2)O3)cc1 | inactive
C[C@H]1CCCCO[C@@H](CN(C)C(=O)C2CCCCC2)[C@@H](C)CN([C@@H](C)CO)C(=O)c2cc(NS(=O)(=O)c3ccccc3)ccc2O1 | inactive
C[C@@H]1CN([C@@H](C)CO)C(=O)Cc2cc(NC(=O)Cc3cn(C)c4ccccc34)ccc2O[C@H]1CN(C)CC1CCCCC1 | inactive
Cl.NCCCCCC(=O)O | inactive
COc1ccc2c3c([nH]c2c1)[C@@H](CO)N(C[C@]13CCN(CC1)S(=O)(=O)c1ccccc1)C(=O)c1cnccn1 | inactive
COc1ccc(S(=O)(=O)Nc2ccc3c(c2)CC(=O)N([C@H](C)CO)C[C@@H](C)[C@@H](CN(C)S(=O)(=O)c2ccc(F)cc2)O3)cc1 | inactive
CCCNC(=O)C[C@H]1CC[C@@H]2[C@@H](COc3ccc(NS(=O)(=O)c4ccccc4C)cc3C(=O)N2C)O1 | inactive
O=C(NCCN1CCCC1)[C@H]1[C@H](CO)[C@H]2Cn3c(cccc3=O)[C@@H]1N2C(=O)NC1CCCC1 | inactive
COC(=O)C[C@H]1CC[C@H]2[C@@H](COC[C@H](O)CN2S(=O)(=O)c2ccccc2C)O1 | inactive
C[C@@H]1CN([C@@H](C)CO)C(=O)c2cc(NC(=O)Nc3ccc(F)cc3)ccc2O[C@H]1CN(C)Cc1ccc(Cl)c(Cl)c1 | inactive
COc1ccc(CN(C)C[C@@H]2Oc3c(NS(=O)(=O)c4cn(C)cn4)cccc3C(=O)N([C@@H](C)CO)C[C@H]2C)cc1 | inactive
C[C@@H]1CN([C@H](C)CO)C(=O)c2cc(NC(=O)Cc3ccccc3)ccc2O[C@@H](C)CCCCO[C@@H]1CN(C)C(=O)C1CCCCC1 | inactive
Cc1noc(C)c1NC(=O)Nc1ccc2c(c1)C(=O)N([C@H](C)CO)C[C@H](C)[C@H](CN(C)C(=O)Nc1cccc3ccccc13)OCCCC[C@@H](C)O2 | inactive
Cc1ccc(S(=O)(=O)Nc2ccc3c(c2)C(=O)N([C@H](C)CO)C[C@H](C)[C@@H](CN(C)S(=O)(=O)c2cccs2)O3)cc1 | inactive
COc1ccc(S(=O)(=O)N(C)C[C@H]2OCCCC[C@H](C)Oc3ccc(NS(C)(=O)=O)cc3C(=O)N([C@@H](C)CO)C[C@@H]2C)cc1 | inactive
C[C@H]1CC/C=C\[C@H]2O[C@@]34C=CCN(c5ccc6ccccc6c5)C(=O)[C@H]3N(CCO)C(=O)[C@@H]4[C@@H]2C(=O)O1 | inactive
C[C@@H]1CN([C@@H](C)CO)C(=O)c2cc(-c3ccncc3)cnc2O[C@@H]1CN(C)S(=O)(=O)c1ccccc1 | inactive
NCC[C@@H]1CC[C@@H](NC(=O)Cc2ccncc2)[C@@H](CO)O1 | inactive
